Data reported in the supplement of paper PMC3334620.
Whole data set: some 33,000 sequences, median “E-score (-0.5 to 0.5)” near -0.036, cut for the highest 2% near 0.37. The list shows a part of the results.

Molecular target: T1, Yer064c (UniProt P40041)
T1 sequence: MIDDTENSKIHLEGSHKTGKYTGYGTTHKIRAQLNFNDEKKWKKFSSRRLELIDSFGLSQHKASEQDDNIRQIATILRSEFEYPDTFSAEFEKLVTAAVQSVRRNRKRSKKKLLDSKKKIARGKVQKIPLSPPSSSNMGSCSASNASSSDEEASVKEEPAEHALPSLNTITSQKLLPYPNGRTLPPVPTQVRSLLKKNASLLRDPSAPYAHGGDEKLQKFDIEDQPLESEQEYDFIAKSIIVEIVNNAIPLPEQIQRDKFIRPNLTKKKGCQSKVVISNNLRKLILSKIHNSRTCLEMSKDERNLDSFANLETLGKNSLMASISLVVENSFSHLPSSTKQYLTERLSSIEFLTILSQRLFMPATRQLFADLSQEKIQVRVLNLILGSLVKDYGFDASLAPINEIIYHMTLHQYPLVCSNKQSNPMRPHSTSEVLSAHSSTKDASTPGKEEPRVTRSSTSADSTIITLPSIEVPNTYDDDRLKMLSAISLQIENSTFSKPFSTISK
Assay: PBM E-score (8-mer binding enrichment) (E-score (-0.5 to 0.5)); higher = stronger / more preferred TF binding; most listed sequences are background and not binding sites
Details: protein concentration: 200 nM; construct: GST-full length
How it was run: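 Each ungapped eight-base word and its reverse complement, pooled, received an E-score from the Universal PBM Analysis Suite. Underlying scans, normalised with masliner, recorded fluorescent anti-GST bound to GST-tagged yeast transcription factors. These were applied at about 100-200 nM to universal all-10-mer Agilent arrays double-stranded by primer extension.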

First: GGCACCCC
Second: AGCCGAGA
The “PBM E-score” value of the first is lower: -0.215 for the first, 0.0772 for the second.

Going from AACAGAGC to CTGCGAAG, the “PBM E-score” value rises from -0.158 to -0.115.

Going from CTGTGACA to ATAGACGC, the “PBM E-score” value falls from 0.191 to -0.203.

First: ATCAGGAA
Second: CCGCTGCA
The “PBM E-score” value of the first is higher: 0.00077 for the first, -0.145 for the second.

Compared with AACATCTG, CAACAACC is higher in “PBM E-score” value: -0.23 for the first, 0.0259 for the second.

First: CGAGCCAC
Second: CTAAGTTA
The “PBM E-score” value of the first is lower: -0.107 for the first, 0.204 for the second.

First: AAGATCAT
Second: CCTCTGAC
The “PBM E-score” value of the first is lower: 0.134 for the first, 0.147 for the second.

Compared with TCCTCAGA, CGCGCAAG is lower in “PBM E-score” value: 0.0903 for the first, 0.0708 for the second.

Going from ACATTTTG to GTACGCTA, the “PBM E-score” value falls from 0.0136 to -0.197.

Going from ACAGAAGA to ACCCACAT, the “PBM E-score” value rises from -0.139 to 0.124.

First: CCGAATAA
Second: CCACAAAG
The “PBM E-score” value of the first is higher: 0.101 for the first, -0.0168 for the second.

Going from ACGGTGTG to CGTCTCCC, the “PBM E-score” value falls from -0.108 to -0.223.

Going from AACACGCA to AGTACAAT, the “PBM E-score” value rises from -0.0269 to 0.182.

Compared with AGACTTGA, GCATGCGC is lower in “PBM E-score” value: 0.217 for the first, -0.261 for the second.

Compared with CATGCCCC, TGTTGGAA is lower in “PBM E-score” value: 0.155 for the first, 0.099 for the second.

First: GGCTCAAC
Second: CATATCTA
The “PBM E-score” value of the first is lower: 0.0647 for the first, 0.205 for the second.

First: TGTGCAAA
Second: CGTCTTAC
The “PBM E-score” value of the first is higher: 0.0276 for the first, -0.141 for the second.

Going from CCCTTACG to CCGAAATC, the “PBM E-score” value rises from -0.14 to 0.0998.

Compared with AGCGGGTA, AGACGCAA is lower in “PBM E-score” value: -0.0553 for the first, -0.121 for the second.

First: ATCGCCTG
Second: CGGGCGAG
The “PBM E-score” value of the first is higher: -0.012 for the first, -0.0528 for the second.

Compared with GCAGAGGC, AAATAACG is higher in “PBM E-score” value: -0.146 for the first, -0.0624 for the second.

First: GGGCAGAA
Second: GGATTCTA
The “PBM E-score” value of the first is lower: -0.0543 for the first, 0.176 for the second.

First: GGATGTAA
Second: CACTTTAG
The “PBM E-score” value of the first is lower: -0.102 for the first, -0.0328 for the second.

Compared with ATTGAGAC, CTCGTAGC is lower in “PBM E-score” value: 0.302 for the first, -0.0323 for the second.

First: ATCTGTTC
Second: ATATTTGC
The “PBM E-score” value of the first is higher: -0.149 for the first, -0.18 for the second.

First: AGCAGATC
Second: ATCGCAGG
The “PBM E-score” value of the first is higher: 0.112 for the first, 0.0211 for the second.

First: GAGCGTGC
Second: GCCAGCAC
The “PBM E-score” value of the first is higher: -0.0384 for the first, -0.109 for the second.

Going from GTTAGGAA to CGCACCCG, the “PBM E-score” value rises from -0.118 to -0.11.

First: TCGACGAA
Second: TCCGGAAA
The “PBM E-score” value of the first is higher: -0.00207 for the first, -0.0818 for the second.

First: ATGCCCGC
Second: CACATGAG
The “PBM E-score” value of the first is lower: -0.206 for the first, 0.149 for the second.

Compared with ACTTAAAC, TAGACGCA is lower in “PBM E-score” value: 0.194 for the first, -0.147 for the second.

Compared with CGAGCGCA, CAACTACC is lower in “PBM E-score” value: -0.142 for the first, -0.163 for the second.

Going from AGCGAGGA to CCGGGCGC, the “PBM E-score” value falls from -0.139 to -0.315.

Going from CATACGGA to CATGAAAG, the “PBM E-score” value rises from -0.0462 to -0.00325.

Going from AGGGCAAA to ATGTGTTC, the “PBM E-score” value rises from -0.174 to 0.1.

First: GCGCAAAC
Second: GCTGCAAC
The “PBM E-score” value of the first is lower: -0.25 for the first, -0.133 for the second.

Going from CCGGGCGA to AAGCAGGG, the “PBM E-score” value falls from -0.0674 to -0.13.

Compared with AGGACGGA, GCATAATA is higher in “PBM E-score” value: -0.103 for the first, 0.0384 for the second.

First: AGCGTCGC
Second: ATGACACG
The “PBM E-score” value of the first is higher: 0.0021 for the first, 0.00041 for the second.

Going from AAACCGAG to GGTGGGGA, the “PBM E-score” value falls from 0.0414 to -0.0167.

Compared with AAACTGTA, ACAATTTG is lower in “PBM E-score” value: -0.0246 for the first, -0.112 for the second.

Compared with AAACGGCG, CACTAAAC is higher in “PBM E-score” value: -0.109 for the first, 0.108 for the second.

Going from AGTGTAAT to CCACGAGG, the “PBM E-score” value falls from 0.114 to -0.165.

Compared with AAATATAA, CTGTCCAC is lower in “PBM E-score” value: 0.147 for the first, -0.0958 for the second.

First: ACTACAGC
Second: ATCGATTC
The “PBM E-score” value of the first is higher: 0.0977 for the first, 0.0522 for the second.

Going from GGGCTGAA to CGTTGCCA, the “PBM E-score” value falls from -0.0325 to -0.112.

Compared with CACACACG, AGAGATAA is lower in “PBM E-score” value: 0.178 for the first, -0.0182 for the second.

Compared with AACGCAGA, CGTGGACC is lower in “PBM E-score” value: 0.199 for the first, -0.213 for the second.

Going from AGTTTTTC to ATCGGCTG, the “PBM E-score” value rises from -0.205 to -0.0271.

Going from GTGTCCCA to GGAGGCAA, the “PBM E-score” value rises from -0.21 to -0.174.

Compared with CAGCGAAC, AGGTCGAG is higher in “PBM E-score” value: -0.119 for the first, -0.115 for the second.

Compared with GCGCAATA, GGCACATA is higher in “PBM E-score” value: -0.0549 for the first, -0.0326 for the second.

Going from AGAAGGGC to ATCAGGGG, the “PBM E-score” value rises from -0.138 to -0.00776.

Compared with GTAATATA, CGGGCACG is lower in “PBM E-score” value: 0.141 for the first, -0.147 for the second.

Going from AACCTTCT to ACGTCGCA, the “PBM E-score” value falls from -0.151 to -0.227.

Going from ACTGGGCA to GTATGCTA, the “PBM E-score” value rises from -0.289 to -0.19.

Going from CACCACAA to CCGCTAGG, the “PBM E-score” value rises from -0.0358 to -0.0177.

First: AATTTCAA
Second: ACAAACCT
The “PBM E-score” value of the first is higher: 0.0526 for the first, -0.187 for the second.

First: GTAAGAAC
Second: CTCGTAAC
The “PBM E-score” value of the first is higher: 0.106 for the first, 0.0792 for the second.

First: ATATAAGG
Second: TATCACGA
The “PBM E-score” value of the first is lower: -0.053 for the first, 0.0815 for the second.

First: CCATCAGG
Second: CGGACACC
The “PBM E-score” value of the first is higher: -0.11 for the first, -0.138 for the second.

Going from TAGTCTGA to GTCCGACA, the “PBM E-score” value falls from 0.362 to 0.0427.

Compared with GGGCGTTA, AGCGGAGC is lower in “PBM E-score” value: -0.138 for the first, -0.328 for the second.

Going from CATCGGGA to GGCAAATA, the “PBM E-score” value falls from 0.03 to -0.137.

Going from ATGATTTA to ACACCGAC, the “PBM E-score” value falls from 0.415 to -0.00153.

First: GTCCCATA
Second: CAGGAGGG
The “PBM E-score” value of the first is higher: -0.0705 for the first, -0.148 for the second.

Compared with CCGCCGCA, CGTCCACA is higher in “PBM E-score” value: -0.299 for the first, -0.164 for the second.

Going from CCCGGATA to CTCTCATC, the “PBM E-score” value falls from 0.0372 to -0.0352.

Compared with CGGATCAA, AAGATGTA is lower in “PBM E-score” value: -0.0498 for the first, -0.0834 for the second.

First: CTCCGAGC
Second: CATAATTA
The “PBM E-score” value of the first is lower: 0.0847 for the first, 0.12 for the second.

First: ACCCTAAT
Second: ACGGGTTC
The “PBM E-score” value of the first is lower: -0.13 for the first, -0.0715 for the second.

Going from GGCTCTAC to TAAGACAA, the “PBM E-score” value rises from -0.153 to -0.0363.

Compared with CTTCCCAC, GCAACCAA is higher in “PBM E-score” value: -0.118 for the first, 0.0385 for the second.

First: GACCCTCC
Second: TCAACGCA
The “PBM E-score” value of the first is lower: -0.0513 for the first, 0.0795 for the second.

Compared with ATCGACGG, GGAACACC is lower in “PBM E-score” value: -0.0827 for the first, -0.283 for the second.

Compared with AGAACTAA, GACGGTGA is lower in “PBM E-score” value: 0.197 for the first, 0.142 for the second.

Compared with CCATTCGA, CGTAGAGC is lower in “PBM E-score” value: -0.011 for the first, -0.0952 for the second.

Going from AGAGAGAC to GCGAATTA, the “PBM E-score” value falls from 0.178 to -0.0352.

Going from GACGTGGA to AAGTAGCC, the “PBM E-score” value falls from -0.12 to -0.136.

Going from ACAATTGG to GAGCTTGC, the “PBM E-score” value falls from -0.0555 to -0.289.

Compared with AACATTTC, CCGACTCC is higher in “PBM E-score” value: -0.06 for the first, 0.339 for the second.

Compared with GGTAATCA, TAAAAGGA is lower in “PBM E-score” value: 0.433 for the first, 0.0858 for the second.

Compared with CTTGCGTC, AGTTTACA is higher in “PBM E-score” value: -0.207 for the first, 0.0123 for the second.

First: ATGTGAAT
Second: AAATCCAT
The “PBM E-score” value of the first is higher: 0.14 for the first, -0.0056 for the second.

Going from AGCTACAG to CCAAGCGC, the “PBM E-score” value falls from -0.144 to -0.184.

First: CCTCCTTC
Second: AAAGAAGC
The “PBM E-score” value of the first is lower: -0.302 for the first, -0.0678 for the second.
